# The full ranking holds about 1,100 sequences; the median of “thermal melting temperature (Tm) of peptide-HLA complex” is about 58, and the lowest 2% start at about 42. The list shows a part of the results.
# Target: HLA-A*02:01
# Experiment: thermal melting temperature (Tm) of peptide-HLA complex; higher = more thermostable pHLA complex
# Settings: C1R-A*02:01
# 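Further: cell lysates heated 10 min at 37–73 °C, remaining pHLA pulled down with pan-class I antibody, peptides quantified by DIA-MS versus 37 °C, Tm where half the complex is lost.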
row,Sequence,thermal melting temperature [°C]
1,NLAEKLIGV,62.3
2,TLAQRVKEV,61.8
3,LLDGFPRTV,49.2
4,SLLKEPQKVQL,55.5
5,TLSDVVVGL,62
6,FLWKEPATM,52.9
7,FLFGEEPSKL,53.1
8,ILPSYIPVRV,57.1
9,ILFGHENRV,57.6
10,FIYHGEVPQA,58.5
11,SLQSTILGV,58.4
12,LLLAAPAQA,52.5
13,FLMKNSDLYGA,58.4
14,KLGDFPYVSI,56
15,GLADLERAQA,50.2
16,YLSGIAHFL,62

# Source: the supplement of paper PMC7726561
